# In the antibiotic and cytotoxicity screens of Wong et al. (2023):
# The other results are listed elsewhere or left out.
# How the values were obtained:
# HSkMC = human skeletal muscle cells; test: cytotoxicity call (relative viability < 0.9); details: 10 µM
# HepG2 = test: cytotoxicity call (relative viability < 0.9); details: 10 µM
# S. aureus RN4220 = test: growth inhibition call (relative growth <= 0.2); details: 50 µM
SMILES,cytotoxicity call (HSkMC),cytotoxicity call (HepG2),growth inhibition call (S. aureus RN4220)
CC(C)CC1C(=O)N2CCCC2C2(O)OC(NC(=O)C3C=C4c5cccc6[nH]c(Br)c(c56)CC4N(C)C3)(C(C)C)C(=O)N12.CS(=O)(=O)O (stereo not drawn),inactive,inactive,inactive
Clc1cc2c(cc1Cl)Oc1cc(Cl)c(Cl)cc1O2,inactive,inactive,inactive
CCCCCC1C(=O)OC(C)C(NC(=O)c2cccc(NC=O)c2O)C(=O)OC(C)C1OC(=O)CC(C)C (stereo not drawn) [ANTIMYCIN A (A1 shown)],–,–,inactive
COCC(=O)N1[C@@H]2c3ccc(C4=CCCC4)c(=O)n3C[C@H]1[C@H](CO)[C@H]2C(=O)OC,inactive,inactive,inactive
CCOP(=S)(OCC)Oc1ccc2c(C)c(Cl)c(=O)oc2c1,inactive,inactive,inactive
Cc1c(N)nc([C@H](CC(N)=O)NC[C@@H](N)C(N)=O)nc1C(=O)N[C@H](C(=O)N[C@@H](C)[C@H](O)[C@@H](C)C(=O)N[C@@H](C(=O)NCCc1nc(-c2nc(C(=O)NCCC[S+](C)C)cs2)cs1)[C@@H](C)O)[C@@H](O[C@H]1O[C@H](CO)[C@H](O)[C@@H](O)[C@H]1O[C@H]1O[C@H](CO)[C@@H](O)[C@H](OC(N)=O)[C@@H]1O)c1c[nH]cn1,inactive,inactive,inactive
NC(=O)CN1CC[C@@H](NC(=O)[C@@H]2CCCN2)C1=O,inactive,inactive,inactive
CN(C)[C@@H](CN)c1cn(C)c2ccccc12,inactive,inactive,inactive
C#CC1(O)C=CC2C3CCC4=CC(=O)CCC4C3CCC21CC (stereo not drawn),inactive,inactive,inactive
Cc1ccc(OC(=O)N(C)C[C@@H]2OCc3ccccc3-c3c(n(C)c4ccccc34)C(=O)N([C@@H](C)CO)C[C@@H]2C)cc1,inactive,inactive,inactive
